In PubChem BioAssay AID1508623 (National Center for Advancing Translational Sciences (NCATS), 2021):
Out of some 48,000 compounds screened, about 450 (0.94%) were called active. Inconclusive results (about 19%) are left out. Calls follow the shape of the dose curve; as a rule, active = well fitted inhibition curve with a large enough effect; inconclusive = small, poorly fitted or top-dose-only effect; inactive = no such curve, though single readings can be large or run the other way. The list shows a part of the results.

Assay: Primary qHTS for Identification of Small Molecule Inhibitors of Huntingtin Promoter Activity; also: nearly all actives have a fitted effect of over 50% in size
Conditions: HEK293 HTT promoter firefly luciferase reporter (activity 0% = vehicle and -100% = no light), 24 h; series mostly up to 57.5 µM; activity change, negative = inhibition: at the top concentration
Method in brief: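 Luminescence was read after Dual-Glo reagent and a 10 min room-temperature incubation. Values were normalized to vehicle (0% activity) and zero RLU (-100% activity). Reporter HEK293 cells had been exposed to compounds (up to 57.5 uM final) for 24 h.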

| Structure (SMILES) | activity change, negative = inhibition |
| --- | --- |
| Cc1ccc(NC(=O)CC(C)S(=O)(=O)c2ccc3c(c2)NC(=O)CO3)c(Cl)c1 (configuration not stated) | inactive: 9.06% |
| COc1cc2c(cc1OC)C(CC(=O)O)N(C(=O)Nc1cc(OC)c(OC)c(OC)c1)CC2 (configuration not stated) | inactive: -6.78% |
| CCc1cccc(NC(=O)C(Cc2ccccc2)NS(=O)(=O)c2cccs2)c1 (configuration not stated) | inactive: -34.1% |
| CC(=O)c1ccc(Nc2cc(C)nc3nc(Cc4ccccc4)nn23)cc1 | inactive: -4.48% |
| COc1ccc(N(CC(=O)NCCc2ccccc2)S(=O)(=O)c2c(C)nn(C)c2C)cc1 | inactive: -11.3% |
| NS(=O)(=O)c1ccc(NC(=O)CCC(=O)O)cc1 | inactive: -2.97% |
| CCCn1c2ccccc2c2cnn(CC(=O)Nc3cc(OC)c(OC)c(OC)c3)c(=O)c21 | inactive: -10.3% |
| CCC1(C)CC(=O)c2c(ccc3oc(C(=O)Nc4ccc(C(C)=O)cc4)c(C)c23)O1 (configuration not stated) | inactive: -18.4% |
| CCOc1ccc(C(=O)NCCc2csc(-c3cccc(C)c3)n2)cc1 | inactive: -9.45% |
| CC(C)CC(=O)Nc1nnc(S(=O)(=O)N2c3ccccc3CC2C)s1 (configuration not stated) | inactive: -10.5% |
| Cc1ccc(N2CCN(C(=O)Cn3ncc4c([nH]c5ccc(C)cc54)c3=O)CC2)c(C)c1 | inactive: 6.98% |
| CCc1ccc(C(=O)COC(=O)C(NC(=O)C2CCC(C)CC2)C(C)C)cc1 (configuration not stated) | inactive: 3.38% |
| CCOc1ccc(CCNC(=O)CCCn2c(=O)c3cccn3c3cccnc32)cc1 | inactive: 0.068% |
| COc1ccc(-c2cc3ccc(O)c(CN4CCN(C)CC4)c3oc2=O)cc1OC | inactive: 2.54% |
| CC(=O)Nc1ccc(Nc2ccc3cc(S(=O)(=O)N4CCCCC4)ccc3n2)cc1 | inactive: -18.4% |
| O=C(NC1CC(=O)N(c2ccc(Cl)cc2)C1)c1cc2ccccc2o1 (configuration not stated) | inactive: 2.54% |
| CC(=O)Oc1cc(C(C)C)c(OCCN(C)C)cc1C | inactive: 12.4% |
| CCCc1ccc(OCC(=O)Nc2sc3c(c2C(=O)OCC)CCC(C(C)(C)C)C3)cc1 (configuration not stated) | inactive: -12.2% |
| Nc1cc(=O)nc(SCC(=O)Nc2ccccc2)n1CCc1ccccc1 | inactive: 0.403% |
| COC1CCC(N(C(=O)C2CCC(C)CC2)c2cc(C3=CCCCC3)sc2C(=O)O)CC1 (configuration not stated) | inactive: -25.5% |
| CCOC(=O)c1c(-c2ccc(OC)c(OC)c2)csc1NC(=O)c1ccccc1F | inactive: -0.646% |
| COc1ccccc1Nc1nc(-c2ccccc2)c(CC(=O)O)s1 | inactive: 28.8% |
| COc1ccc2c(c1)c1c(c(=O)n(-c3cccc(C)c3)c(=O)n1CC(=O)NCCC1=CCCCC1)n2C | inactive: -8.66% |
| Cc1ccc2nc3c(cc(C(=O)NC4CCCC4)c(=N)n3C(C)C)c(=O)n2c1 | inactive: 0.843% |
| O=c1c2cccnc2n(Cc2cccc(F)c2)c(=O)n1Cc1ccc(F)cc1 | inactive: -24.6% |

| Structure (SMILES) | activity change, negative = inhibition |
| --- | --- |
| CCC(Nc1ccc(-c2nc(-c3cccnc3)no2)cc1[N+](=O)[O-])c1ccccc1 (configuration not stated) | inactive: 3.69% |
| Cc1ccccc1OCC(=O)Nc1ccc2nc(SCC(=O)N3CCCC3)sc2c1 | inactive: 1.62% |
| CCOC(=O)c1cc(-c2ccc(OC)c(S(=O)(=O)N3CCN(c4ccccc4)CC3)c2)on1 | inactive: -15.8% |
| CCOC(=O)c1c(S(=O)(=O)N2CCC(C(=O)NCc3ccccc3Cl)CC2)c(C)n(C)c1C | inactive: -6.66% |
| COc1ccc(N2CC(NC(=O)C(c3ccccc3)c3ccccc3)CC2=O)cc1 (configuration not stated) | inactive: 2.68% |
| COc1cccc(CNC(=O)c2ccc3c(c2)sc2nc(-c4cccc(OC)c4)cn23)c1 | inactive: 2.24% |
| CCOC(=O)c1ccc(NC(=O)Cn2nc(C)c3nn(-c4ccc(Cl)cc4)c(C)c3c2=O)cc1 | inactive: -21% |
| CCc1nc2nc(C)cc(Nc3cc(C)ccc3C)n2n1 | inactive: -19.3% |
| Cc1cccc(N2CCN(C(=O)c3cnn(-c4ccccc4)c3C3CCN(C(=O)OC(C)(C)C)CC3)CC2)c1C | inactive: 2.35% |
| Cc1ccc(Nc2ncnc3c2nc2n3CCCC2)cc1F | inactive: -10.4% |
| Clc1ccc(CSc2nncn3c2cc2occc23)cc1 | inactive: -20% |
| CC(c1cc2ccccc2s1)N(O)C(N)=O (configuration not stated) | inactive |
| Cc1nc2nc[nH]n2c(=O)c1NS(=O)(=O)c1ccc(Br)cc1 | inactive: -10.8% |
| CC1=C(c2ccc(Cl)cc2)S(=O)(=O)N=C1N1CCN(c2cc(C)ccc2C)CC1 | inactive: -24.6% |
| Cc1cccc(N(C)S(=O)(=O)c2ccc3c(c2)NC(=O)CC(=O)N3)c1 | inactive: -8.88% |
| CCCN1CCCc2cc(CN(CCCN3CCOCC3)C(=O)Nc3ccc(Cl)c(Cl)c3)ccc21 | inactive: -29.8% |
| COc1cccc(Cn2c(=O)n(Cc3ccccc3)c(=O)c3c2c2cc(OC)ccc2n3C)c1 | inactive: -5.86% |
| Cc1cc2[nH]c(=O)c(=O)[nH]c2cc1S(=O)(=O)N1CCN(c2ccccc2F)CC1 | inactive: 12% |
| CCOc1c(N2CCOCC2)cnn(C)c1=O | inactive: 2.88% |
| COC(=O)c1c(NC(=O)c2ccc(C(C)(C)C)cc2)sc2c1CCC(C)C2 (configuration not stated) | inactive: -17.5% |
| CC[C@@]1(O)C(=O)OCc2c1cc1n(c2=O)Cc2c-1nc1ccccc1c2/C=N/OC(C)(C)C | inactive: -33.4% |
| CCN(C(=O)Cn1nc(Cc2ccncc2)c2ccccc2c1=O)c1ccc(OC)cc1 | inactive: -6.19% |
| CCOC(=O)c1c(NC(=O)COc2ccccc2)sc(C(C)=O)c1C | inactive: -8.48% |
| Clc1ccc(-c2cn3cc(Cc4ccccc4)sc3n2)cc1 | inactive: -18.2% |
| CCc1ccc(NC(=O)CNC(=O)Cn2c(C)cc3ccccc3c2=O)cc1 | inactive: -19.4% |

| Structure (SMILES) | activity change, negative = inhibition |
| --- | --- |
| O=C(CSc1nc(=O)n(Cc2ccncc2)c2c1CCC2)Nc1cccc(F)c1 | inactive: -15.5% |
| CC1(C)CC(=O)c2cc(-c3nc(-c4ccc(F)cc4)cs3)c(=O)[nH]c2C1 | inactive: 1.58% |
| CCC(=O)N1c2ccccc2CC1C(=O)NCCN1CCN(c2cc(Cl)ccc2C)CC1 (configuration not stated) | inactive: -26.4% |
| Cc1cc(C)cc(OCC(=O)N2CCC(c3nc4ccccc4o3)CC2)c1 | inactive: -9.81% |
| COC(=O)c1ccccc1NC(=O)C(Cc1ccccc1)N1Cc2ccccc2C1=O (configuration not stated) | inactive: -13.3% |
| COc1ccc(C)cc1NC(=O)Cn1cc(S(=O)(=O)N2CCC(C)CC2)c2ccccc2c1=O | inactive: -28.4% |
| CCOc1ccc(NC(=O)c2c(NCc3cc(OC)c(OC)cc3OC)sc3c2CCCC3)cc1 | inactive: -30.5% |
| COc1ccc(NC(=O)Cn2c(-c3ccc(F)cc3)cc(C(C)=O)c2C)c(OC)c1 | inactive: -17.5% |
| CC(=O)Nc1ccc(S(=O)(=O)NCC2CCC(C(=O)NCCc3ccc(C)cc3)CC2)cc1 (configuration not stated) | inactive: 5.95% |
| CC(=O)c1cccc(NC(=O)c2ccc3c(c2)N(Cc2ccc(C)cc2)CCS3)c1 | inactive: -0.0438% |
| COc1ccc(CCNC(=O)Cn2c(=O)nc(-c3ccccc3)c3cc(Cl)ccc32)cc1OC | inactive: -13.3% |
| N#C/C(=C\c1ccc(F)cc1)c1nc(-c2ccc(-c3ccccc3)cc2)cs1 | inactive: 14.8% |
| COCCCNc1nc2c(c(=O)[nH]c(=O)n2C)n1CC(O)COc1ccc(Cl)cc1 (configuration not stated) | inactive: -7.55% |
| Cc1cc(C)c2c(=O)c3c(oc2c1)C(=O)N(CCCOC(C)C)C3c1ccccc1F (configuration not stated) | inactive: -20.9% |
| CCOc1ccc(NC(=O)CSc2nc3c([nH]c4ccccc43)c(=O)n2-c2cc(C)cc(C)c2)cc1 | inactive: -12.9% |
| Cc1cccc(N2CCN(C(=O)c3cnc4c(C)cccn4c3=O)CC2C)c1 (configuration not stated) | inactive: 5.03% |
| Cc1nc2c(-c3ccccc3)c(C)nn2c(C)c1CCC(=O)NCCc1ccccc1 | inactive: -31% |
| NCCc1ccn[nH]1 | inactive: 1.02% |
| CCOC(=O)c1c(C)oc2c1cc(NS(=O)(=O)c1ccc(C)cc1)c1ccccc12 | inactive: -20% |
| O=C(NC1CC(=O)N(c2ccc(Cl)cc2)C1)C1CCCC1 (configuration not stated) | inactive: 0.399% |
| COc1ccc(NC(=O)CSc2nc3c(oc4ccccc43)c(=O)n2-c2ccccc2)cc1OC | inactive: -16.6% |
| CCC(C)NC(=O)c1ccc2c(c1)nc1n2CCCCC1 (configuration not stated) | inactive: 59.1% |
| CN1CCN(C(=O)c2ccc3c(c2)N(Cc2ccc(F)cc2)C(=O)c2ccccc2S3=O)CC1 (configuration not stated) | inactive: -11% |
| CC(C)(C)OC(=O)N1CCC(c2c(C(=O)NCc3ccccc3)cnn2-c2ccc(F)cc2)CC1 | inactive: -23.5% |
| O=C(CSc1nc(-c2ccccc2)no1)N1CCN(c2ccccc2)CC1 | inactive: 3.81% |

| Structure (SMILES) | activity change, negative = inhibition |
| --- | --- |
| CCOc1ccccc1NC(=O)c1cc(S(=O)(=O)N2CCOCC2)cn1C | inactive: -3.26% |
| CCN1CCc2c(sc(-n3cccc3)c2C(C)NC(=O)Nc2cc(Cl)c(OC)cc2OC)C1 (configuration not stated) | inactive: -15.9% |
| CC(C)Oc1ccc(NC(=O)c2cc3ccccc3o2)cc1 | inactive: -24.7% |
| Cc1sc2c(c1C)c(=O)n(Cc1ccccc1)c(=O)n2CC(=O)N(C)c1ccccc1 | inactive: -4.23% |
| CCCNC(=O)c1cnn2c(C(F)F)cc(-c3ccccc3)nc12 | inactive: -17% |
| CC1(C)CC(=O)c2cc(-c3nc(-c4ccc(Cl)cc4)cs3)c(=O)[nH]c2C1 | inactive: -1.97% |
| COc1ccc(-c2nc(Cn3c(=O)cc(-c4ccccc4)c4c(C)nn(C)c43)c(C)o2)cc1OC | inactive: 11.6% |
| CC(=O)N1CCc2cc(Br)cc(S(=O)(=O)NCCc3ccc(Cl)cc3)c21 | inactive: -8.66% |
| CC1=C(/C=C/C(C)=C/C=C/C(C)=C/C(=O)Nc2ccc(O)cc2)C(C)(C)CCC1 | inactive: -17.4% |
| CC(=O)c1cccc(NC(=O)CCc2nc3cccnc3n2Cc2cccs2)c1 | inactive: -21.8% |
| O=C(c1cccn1-c1nnc(N2CCCCC2)s1)N1CCN(c2ccc(Cl)cc2)CC1 | inactive: -28.4% |
| COc1ccc(CCNc2nc3ccc(C)cc3n3cnnc23)cc1OC | inactive: -1.99% |
| CCOC(=O)CSc1nc(-c2ccc(F)cc2)cc(C(F)(F)F)c1C#N | inactive: -32% |
| Cc1cc(C)cc(NC(=O)C(CC(C)C)NC(=O)C2CCCCC2)c1 (configuration not stated) | inactive: -0.544% |
| CN(C)c1ccc(C(=O)Nc2c(C(=O)NC(C)(C)C)oc3ccccc23)cc1 | inactive: -16.5% |
| CC(C)Oc1ccc(CNC(=O)c2ccc3nc(C(C)C)oc3c2)cc1 | inactive: -2.9% |
| COc1ccc(-c2nc3scc(CCNS(=O)(=O)c4c(C)cc(C)cc4C)n3n2)cc1OC | inactive: -7.46% |
| CCc1nn2c(=O)cc(COC(=O)c3ccc4c(c3)OCO4)nc2s1 | inactive: -2.17% |
| Cc1cc(C)cc(C(=O)Nc2cccc(-c3nc4ncccc4o3)c2C)c1 | inactive: 13.1% |
| COc1ccccc1CNC(=O)CCCCn1c(=O)c2ccccc2n(Cc2ccccc2C)c1=O | inactive: -30% |
| CC(C)(C)C1CCc2c(sc(NC(=O)c3ccccc3F)c2C(=O)NCc2ccco2)C1 (configuration not stated) | inactive: -31.7% |
| CC(=O)c1c(C)n(-c2ccc(Cl)cc2)c2ccc(OC(=O)COc3ccccc3)cc12 | inactive: -23.5% |
